Results: the supplement of paper PMC4996465
Counter-ions that a name gives are not always drawn. Viability of KB3-1 and Nalm-6 cells after 48 h of drug alone (CellTiter-Glo), 11 doses over about 4.5 log units. % of DMSO wells, lower = more cell loss; AC50 from the fitted curve, lower = more potent. No active / inactive call. Nalm-6 was screened in two runs. AC50 is listed only for well-fitted inhibitory curves. KB3-1 is a HeLa-derived carcinoma line, Nalm-6 a B-cell precursor leukaemia line.

Key:
KB3-1 = assay: viability (% of DMSO control); higher = more viable cells
Description: (§1)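 Eleven-dose screen of the NCATS MIPE 3 library on cells without co-treatment; CellTiter-Glo after 48 h, as % of DMSO wells.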

Nalm-6 = assay: as above
Description: as §1

Row | Compound | viability (KB3-1; 0.00078 µM) [%] | viability (KB3-1; 0.00234 µM) [%] | viability (KB3-1; 0.00702 µM) [%] | viability (KB3-1; 0.0211 µM) [%] | viability (KB3-1; 0.0632 µM) [%] | viability (KB3-1; 0.19 µM) [%] | viability (KB3-1; 0.569 µM) [%] | viability (KB3-1; 1.71 µM) [%] | viability (KB3-1; 5.12 µM) [%] | viability (KB3-1; 15.4 µM) [%] | viability (KB3-1; 46.1 µM) [%] | viability (Nalm-6; run: 1, 0.00078 µM) [%] | viability (Nalm-6; run: 1, 0.00234 µM) [%] | viability (Nalm-6; run: 1, 0.00702 µM) [%] | viability (Nalm-6; run: 1, 0.0211 µM) [%] | viability (Nalm-6; run: 1, 0.0632 µM) [%] | viability (Nalm-6; run: 1, 0.19 µM) [%] | viability (Nalm-6; run: 1, 0.569 µM) [%] | viability (Nalm-6; run: 1, 1.71 µM) [%] | viability (Nalm-6; run: 1, 5.12 µM) [%] | viability (Nalm-6; run: 1, 15.4 µM) [%] | viability (Nalm-6; run: 1, 46.1 µM) [%] | viability (Nalm-6; run: 2, 0.00078 µM) [%] | viability (Nalm-6; run: 2, 0.00234 µM) [%] | viability (Nalm-6; run: 2, 0.00702 µM) [%] | viability (Nalm-6; run: 2, 0.0211 µM) [%] | viability (Nalm-6; run: 2, 0.0632 µM) [%] | viability (Nalm-6; run: 2, 0.19 µM) [%] | viability (Nalm-6; run: 2, 0.569 µM) [%] | viability (Nalm-6; run: 2, 1.71 µM) [%] | viability (Nalm-6; run: 2, 5.12 µM) [%] | viability (Nalm-6; run: 2, 15.4 µM) [%] | viability (Nalm-6; run: 2, 46.1 µM) [%]
1 | O=C(O)CCC1CCC(c2cc(F)ccc2F)(S(=O)(=O)c2ccc(Cl)cc2)CC1 (centres undefined) [MK-0752] | 97.4 | 97.3 | 93.4 | 87.3 | 96 | 97.6 | 56.5 | 92.8 | 97 | 94.5 | 96.7 | 90.3 | 95.5 | 104 | 100 | 102 | 105 | 101 | 104 | 108 | 99.8 | 102 | 103 | 95.9 | 104 | 101 | 97.5 | 98 | 91.7 | 95.1 | 95.3 | 96 | 92.8
2 | COc1ccc(CC2SC(=O)NC2=O)cc1C(=O)NCc1ccc(C(F)(F)F)cc1 (centres undefined) [MK-767] | 105 | 106 | 104 | 105 | 102 | 105 | 106 | 98 | 104 | 105 | 82.9 | 103 | 108 | 109 | 102 | 103 | 99 | 111 | 107 | 104 | 105 | 79.5 | 99.8 | 94.4 | 96.1 | 88.5 | 98.1 | 98.2 | 101 | 100 | 96.6 | 102 | 79.6
3 | NC1(CCC1)C2=CC=C(C=C2)C3=C(C=C/4C(=N3)\C=C/N5C(=O)N\N=C45)C6=CC=CC=C6 [MK-2206] | 96.1 | 97.3 | 95.3 | 90 | 88.6 | 88.4 | 91 | 87.3 | 110 | 85.8 | -0.434 | 90.1 | 99.2 | 84.9 | 69.8 | 52.8 | 46.2 | 46.3 | 44.6 | 125 | 15.8 | -1.08 | 99.2 | 97.3 | 88.4 | 71.2 | 53.3 | 53.7 | 53.2 | 43.3 | 106 | 18.6 | -0.0729
4 | COC1=CC=C(C=C1)C2CC(=N/N2C3=CC=C(C=C3)[S+](N)([O-])=O)\C4=CC=CC=C4 (centres undefined) [ML 141] | 95.5 | 96.9 | 101 | 96.4 | 98.5 | 105 | 98.3 | 103 | 98.7 | 92.4 | 37.9 | 67.7 | 87.7 | 89.3 | 96.8 | 91 | 105 | 101 | 112 | 106 | 103 | 4.85 | 101 | 101 | 106 | 101 | 96.1 | 111 | 94.9 | 111 | 111 | 109 | 2.5
5 | COc1c(Cl)cc2c([nH]c3cnccc32)c1NC(=O)c1cccnc1C [MLN-120B] | 99.5 | 97.4 | 94 | 98.3 | 98.7 | 98.1 | 98.2 | 97.8 | 91.3 | 99 | 97.6 | 92.2 | 92.2 | 102 | 104 | 104 | 102 | 102 | 100 | 94.3 | 99.1 | 72.1 | 107 | 97.5 | 104 | 108 | 101 | 106 | 102 | 102 | 105 | 106 | 93.9
6 | Cc1nnc(C(C)C)n1C1CC2CCC(C1)N2CC[C@H](NC(=O)C1CCC(F)(F)CC1)c1ccccc1 (some centres undefined) [Maraviroc] | 103 | 94.9 | 100 | 99.5 | 97.1 | 105 | 104 | 105 | 103 | 104 | 103 | 94.9 | 99.5 | 110 | 111 | 106 | 116 | 120 | 123 | 126 | 126 | 120 | 99.5 | 99 | 107 | 109 | 105 | 101 | 108 | 104 | 108 | 83.1 | 96.6
7 | CN(C)C(=N)NC(=N)N [Metformin HCl] | 102 | 101 | 102 | 103 | 103 | 105 | 104 | 103 | 110 | 105 | 103 | 106 | 108 | 111 | 107 | 117 | 114 | 118 | 116 | 111 | 113 | 108 | 104 | 112 | 106 | 101 | 110 | 110 | 112 | 109 | 105 | 109 | 109
8 | CNCC(O)C(O)C(O)C(O)CO.O=C(O)c1ccc(-c2cc3cccnc3c(-c3ccc4nonc4c3)n2)cc1 [NVP-ABE171] | 102 | 106 | 104 | 110 | 109 | 103 | 102 | 107 | 106 | 101 | 102 | 99.8 | 90.9 | 103 | 115 | 115 | 112 | 120 | 115 | 120 | 111 | 89.8 | 107 | 108 | 104 | 108 | 106 | 105 | 102 | 111 | 102 | 103 | 101
